# The campaign covered roughly 16,000 compounds. About 260 (1.6%) were called active. Inconclusive results, whose numbers are uncertain, are shown with a selection of clear calls. Calls follow the shape of the dose curve; as a rule, active = well fitted inhibition curve with a large enough effect; inconclusive = small, poorly fitted or top-dose-only effect; inactive = no such curve, though single readings can be large or run the other way. No potency is given beside an inconclusive call; the fits are too rough.
# Target: Rap guanine nucleotide exchange factor 4 (Homo sapiens) (UniProt Q8WZA2)
# Experiment: Validation qHTS for antagonist of cAMP-regulated guanine nucleotide exchange factor 4 (EPAC2); also: nearly all actives have a fitted effect of over 40% in size;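 as to activity, negative = inhibition: 100% = activation by cAMP agonist control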
# Conditions: EPAC2 Rap1B BODIPY-GDP exchange, fluorescence; activity, negative = inhibition: at 112 µM (top of the series)
# Outline: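 Fluorescent exchange read-out: 100 nM EPAC2 with 250 nM RAP1B–BODIPY-GDP and 50 uM GDP; BODIPY-GDP release lowers fluorescence. Read at 480/540 nm every 5 min for 30 min at room temperature; normalized to 6.5 mM cAMP.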
# Potency is read from the fitted curve at half-maximal effect; tags tell the direction and shape of the fitted curve.
# UniProt Q8WZA2, sequence (Q8WZA2 whole entry, looked up): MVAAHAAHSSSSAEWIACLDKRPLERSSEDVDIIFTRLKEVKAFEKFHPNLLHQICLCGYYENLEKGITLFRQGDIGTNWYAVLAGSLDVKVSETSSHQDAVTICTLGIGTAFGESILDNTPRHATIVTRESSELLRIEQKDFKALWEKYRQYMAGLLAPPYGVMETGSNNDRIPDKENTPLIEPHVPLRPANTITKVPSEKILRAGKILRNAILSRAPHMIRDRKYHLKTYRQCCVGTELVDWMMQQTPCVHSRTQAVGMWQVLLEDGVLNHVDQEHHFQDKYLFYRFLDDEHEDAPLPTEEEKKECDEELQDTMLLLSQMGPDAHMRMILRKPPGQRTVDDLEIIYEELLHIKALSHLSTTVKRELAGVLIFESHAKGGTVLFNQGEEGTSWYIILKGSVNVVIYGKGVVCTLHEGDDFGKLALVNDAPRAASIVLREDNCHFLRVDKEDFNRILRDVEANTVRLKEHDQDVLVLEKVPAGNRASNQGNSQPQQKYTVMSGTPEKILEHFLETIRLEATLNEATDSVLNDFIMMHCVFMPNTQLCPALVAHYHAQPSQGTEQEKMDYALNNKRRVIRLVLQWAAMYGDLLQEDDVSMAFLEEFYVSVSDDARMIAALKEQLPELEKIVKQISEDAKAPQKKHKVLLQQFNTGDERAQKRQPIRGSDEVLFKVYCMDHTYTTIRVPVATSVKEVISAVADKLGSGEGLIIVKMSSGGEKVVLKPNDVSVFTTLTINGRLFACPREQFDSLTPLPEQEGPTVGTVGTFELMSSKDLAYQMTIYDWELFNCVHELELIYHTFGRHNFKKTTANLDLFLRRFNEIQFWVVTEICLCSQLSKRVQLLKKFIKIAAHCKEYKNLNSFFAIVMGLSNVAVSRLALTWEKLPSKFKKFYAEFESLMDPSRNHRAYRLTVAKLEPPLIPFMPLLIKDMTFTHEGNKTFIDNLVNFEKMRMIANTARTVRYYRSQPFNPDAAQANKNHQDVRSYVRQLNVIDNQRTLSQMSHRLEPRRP
SMILES,"activity, negative = inhibition",Potency
COCCn1c(=O)c(CCc2ccccc2)nc2cnc(Nc3ccccc3)nc21,inactive: -11.8%,–
Cc1ccc(SC[C@H](C)CN2CC[C@H](C(C)(C)C)CCC2=O)cc1,–,"inconclusive [inhibitor, single point]"
COc1ccc(-n2c(=O)c(-c3cccs3)nc3cnc(Nc4cccc(OC)c4)nc32)cc1,inactive: 27.6%,–
Cc1nc2c(OCc3ccccc3)cccn2c1CC#N,–,"inconclusive [inhibitor, partial curve]"
Cc1nc(C)n(CC(=O)NCC2Cc3cc(-c4cccc(OC(F)(F)F)c4)ccc3O2)n1 (centres undefined),–,"inconclusive [inhibitor, full curve]"
COc1ccc(-c2nc3cnc(N4CCNCC4)nc3n(Cc3cccs3)c2=O)cc1,–,"inconclusive [inhibitor, partial curve]"
Cc1cc(CC(C)CC(C)(C)C)n(O)c(=O)c1 (centres undefined) (tested in a mixture with another compound),–,"inconclusive [inhibitor, partial curve, poor fit]"
OC1(c2cccnc2)CCN(Cc2ccc3c(c2)CN(Cc2cc4ccccc4s2)CCO3)CC1,inactive: -43.1%,–
C=C1C(=O)OC2C[C@@]3(C)CCCC(=C)[C@@H]3CC12 (some centres undefined),inconclusive: -31.7% [inhibitor],–
C1=C/C(=C2/C=Cc3ccccc32)c2ccccc2N1,inactive: -14%,–
CC(C)=CCc1c(O)cc2occ(-c3ccc4c(c3)OCO4)c(=O)c2c1O,inactive: -25.5%,–
CC(C)C[C@@H](CO)N1CCN(CC(C)C)CCC1=O,–,"inconclusive [inhibitor, single point]"
Cc1cc2c(cc1C)NC1(C[C@H]3CCC(=O)N4CC[C@@H](C1)[C@@H]34)C(=NC(C)(C)CC(C)(C)C)N2 (some centres undefined),inconclusive: -33.6% [inhibitor],–
Cc1ccccc1-c1nccc(Nc2ccc(F)cc2)n1,–,"inconclusive [inhibitor, partial curve]"
O=C(C1CCCCC1)N(CCN1CCN(c2ccccc2CO)CC1)c1ccccn1,–,"inconclusive [inhibitor, single point]"
COc1ccc(CNc2ncncc2-c2ccccc2Cl)c(OC)c1,–,"inconclusive [inhibitor, partial curve, poor fit]"
COC(=O)C1=CO[C@@H](O[C@H]2OC(CO)C(O)C(O)C2O)C2C1CC(O)C2C (some centres undefined),inactive: -2.91%,–
COc1ccc(-n2c(=O)c(C)nc3cnc(Oc4cccc(Cl)c4)nc32)cc1,–,"inconclusive [inhibitor, partial curve]"
CCCCC[C@H]1CN(C2CCCCC2)C(=O)[C@@H]1CC(=O)NCc1ccc(OC)cc1,–,"inconclusive [inhibitor, full curve, poor fit]"
